The text below walks through data of the supplement of paper PMC7826260.

The list shows a part of the results. Viral Rep nickase domains cut single-stranded DNA in vitro at 3 µM enzyme and 37 °C for 1 h; the strands have 90 letters, of which the middle is given. Numbers give uncut DNA relative to the enzyme-free pool, as log2; the lower, the more was cut; hits are not called. Reads are scaled to the total; uncut strands gain when others are lost, and binding without cutting may add a little.

Holding throughout (assay): uncleaved DNA left, log2 of reads against the no-enzyme library (log2 ratio); higher = less cleavage (more negative = more Rep cleavage of the k-mer); sequences stand for … in CTCGTCCG…ACCGGAGA
Assay [1] deals with T1, Rep nickase domain of Muscovy duck circovirus.
T1 sequence (Rep 1-111, printed without the tag): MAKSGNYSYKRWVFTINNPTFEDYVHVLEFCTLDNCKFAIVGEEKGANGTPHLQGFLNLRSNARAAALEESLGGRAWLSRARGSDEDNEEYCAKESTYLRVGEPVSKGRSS
The method, then:
(§1)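 A pool of 90-nt single-stranded DNAs with seven random bases just before the constant AC of the nick site (name = the seven bases) was cut by 3 µM recombinant His6-SUMO-tagged Rep nickase domain (300 nM DNA, 50 mM HEPES pH 8.0, 50 mM NaCl, 1 mM MnCl2, 1 h, 37 °C, three replicates). Uncut DNA was amplified and sequenced.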

The test system of assay [2] is T2, Rep nickase domain of banana bunchy top virus.
T2 sequence (Rep 1-94, printed without the tag): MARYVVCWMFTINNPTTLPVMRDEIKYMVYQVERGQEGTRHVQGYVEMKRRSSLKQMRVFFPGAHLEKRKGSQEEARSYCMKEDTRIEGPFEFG
The method, then:
as §1

The subject of assay [3] is T3, Rep nickase domain of cabbage leaf curl virus.
T3 sequence (Rep 1-116, printed without the tag): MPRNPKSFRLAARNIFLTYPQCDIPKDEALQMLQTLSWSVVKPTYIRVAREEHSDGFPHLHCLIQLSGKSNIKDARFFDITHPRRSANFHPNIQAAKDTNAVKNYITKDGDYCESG
The method, then:
as §1

In assay [4] the test system is T4, Rep nickase domain of chickpea chlorotic dwarf virus.
T4 sequence (Rep 1-124, printed without the tag): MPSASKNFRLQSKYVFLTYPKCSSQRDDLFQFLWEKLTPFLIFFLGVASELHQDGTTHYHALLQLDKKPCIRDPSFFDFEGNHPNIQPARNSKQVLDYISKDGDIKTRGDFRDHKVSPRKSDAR
The method, then: as §1
Assay [5] concerns T5, Rep nickase domain of faba bean necrotic yellows virus.
T5 sequence (Rep 1-98, printed without the tag): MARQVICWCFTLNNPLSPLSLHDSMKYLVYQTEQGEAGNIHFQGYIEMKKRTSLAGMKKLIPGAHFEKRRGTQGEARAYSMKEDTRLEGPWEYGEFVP
The method, then:
as §1

Assay [6] concerns T6, Rep nickase domain of maize striate mosaic virus.
T6 sequence (Rep 1-117, printed without the tag): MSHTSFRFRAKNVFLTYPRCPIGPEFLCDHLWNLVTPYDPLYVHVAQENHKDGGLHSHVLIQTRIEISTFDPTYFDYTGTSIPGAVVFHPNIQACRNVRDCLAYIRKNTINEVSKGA
The method, then: as §1
In assay [7] the test system is T7, Rep nickase domain of porcine circovirus 2.
T7 sequence (Rep 2-116, printed without the tag): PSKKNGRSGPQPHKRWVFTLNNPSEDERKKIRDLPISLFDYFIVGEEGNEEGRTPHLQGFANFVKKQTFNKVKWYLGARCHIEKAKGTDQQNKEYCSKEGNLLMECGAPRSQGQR
The method, then: as §1
Assay [8] concerns T8, Rep nickase domain of tomato golden mosaic virus.
T8 sequence (Rep 1-124, printed without the tag): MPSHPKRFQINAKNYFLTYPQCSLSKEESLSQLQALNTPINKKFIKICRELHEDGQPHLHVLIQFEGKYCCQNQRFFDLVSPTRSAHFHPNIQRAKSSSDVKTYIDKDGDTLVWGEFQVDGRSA
The method, then:
as §1

For assay [9], the system named is T9, Rep nickase domain of tomato yellow leaf curl virus.
T9 sequence (Rep 1-136, printed without the tag): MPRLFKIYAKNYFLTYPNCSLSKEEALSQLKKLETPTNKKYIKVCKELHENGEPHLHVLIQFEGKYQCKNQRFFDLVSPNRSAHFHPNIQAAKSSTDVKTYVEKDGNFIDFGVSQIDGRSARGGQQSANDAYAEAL
The method, then: as §1
Assay [10] relates to T10, Rep nickase domain of wheat dwarf virus.
T10 sequence (Rep 1-137, printed without the tag): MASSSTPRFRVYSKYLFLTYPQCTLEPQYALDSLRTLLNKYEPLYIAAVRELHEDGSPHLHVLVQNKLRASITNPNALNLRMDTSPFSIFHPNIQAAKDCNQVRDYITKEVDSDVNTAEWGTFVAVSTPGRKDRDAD
The method, then: as §1

TTAATAA: the “uncleaved DNA left (log2)” value in assay [1] is -0.197; in assay [2] it was -0.0829; in assay [3], 0.0473; in assay [4], -0.189; in [5], -0.148; in [6], -0.234. In addition, the “uncleaved DNA left (log2)” value in assay [7] is -0.116; in [8] it was -0.0449; in assay [9], -0.105; in assay [10], -0.0768.

As for CTCTAGC, the “uncleaved DNA left (log2)” value in assay [1] is -0.092; in assay [2], -0.0448; in [3], -0.438; in assay [4] it was -0.413; in [5], 0.0673; in assay [6] it was -0.844. In addition, the “uncleaved DNA left (log2)” value is 0.0721 in [7], -0.093 in assay [8], -0.0145 in assay [9] and 0.0165 in assay [10].

Take CTCAGGC: the “uncleaved DNA left (log2)” value in assay [1] was -0.0201; in assay [2], 0.0523; in assay [3], 0.0873; in [4], 0.381; in assay [5], -0.117; in assay [6] it was -0.459. Also, the “uncleaved DNA left (log2)” value in assay [7] was 0.0592; in assay [8], -0.0618; in assay [9], -0.0881; in assay [10], -0.0137.

TTTCACA: the “uncleaved DNA left (log2)” value in assay [1] is 0.0469; in [2] it was -0.0191; in assay [3], 0.27; in assay [4], -1.04; in [5], 0.065; in [6] it was 0.412. The “uncleaved DNA left (log2)” value in assay [7] is -0.124; in [8] it was 0.0555; in assay [9] it was 0.123; in assay [10], -0.00992.

On to CGCAGCC, for which the “uncleaved DNA left (log2)” value is -0.0698 in assay [1]; -0.0599 in assay [2]; 0.147 in assay [3]; 0.451 in assay [4]; -0.155 in [5]; 0.426 in assay [6]. In addition, the “uncleaved DNA left (log2)” value in assay [7] is -0.086; in assay [8], -0.088; in assay [9] it was -0.166; in assay [10], -0.158.

In the case of TCCTTTT, the “uncleaved DNA left (log2)” value in assay [1] is -2.98; in [2], -0.357; in [3] it was -0.193; in assay [4], -2.12; in assay [5], -0.0515; in assay [6], -0.795. The “uncleaved DNA left (log2)” value in [7] is -3.32; in [8], -0.28; in [9], -0.0217; in assay [10], -0.359.

For the sequence CAAAGTT, the “uncleaved DNA left (log2)” value in assay [1] is -0.18; in assay [2] it was -0.241; in [3] it was -3.46; in assay [4] it was -3.08; in assay [5], 0.108; in assay [6], -2.07. Moreover, the “uncleaved DNA left (log2)” value is -1.81 in assay [7], -1.72 in assay [8], -0.175 in assay [9] and -2.58 in assay [10].

For the sequence GGATATC, the “uncleaved DNA left (log2)” value in assay [1] stood at 0.0766; in assay [2] it was 0.122; in assay [3] it was 0.768; in assay [4], 1.72; in assay [5], 0.0649; in [6], 2.09. The “uncleaved DNA left (log2)” value in assay [7] worked out at 0.239; in assay [8] it was 0.0632; in assay [9], 0.0797; in assay [10], 0.243.

CCTGCTT: the “uncleaved DNA left (log2)” value in assay [1] is 0.0328; in assay [2], -0.104; in assay [3] it was -0.201; in assay [4], -1.79; in assay [5], -0.00447; in assay [6] it was -0.684. For the same sequence, the “uncleaved DNA left (log2)” value in [7] is -0.437; in [8], 0.0352; in assay [9] it was -0.0488; in [10] it was -0.233.

In the case of ACTATGA, the “uncleaved DNA left (log2)” value in assay [1] is -0.0215; in assay [2], 0.0617; in [3] it was -0.124; in [4], 0.11; in [5] it was 0.0362; in [6], -0.866. For the same sequence, the “uncleaved DNA left (log2)” value in [7] was 0.106; in [8] it was 0.0332; in assay [9] it was -0.0114; in assay [10], -0.0527.

Turning to ATAACAC, the “uncleaved DNA left (log2)” value in assay [1] was -0.085; in [2], 0.046; in assay [3], -0.621; in [4] it was -1.57; in [5] it was 0.0113; in assay [6], -0.814. The “uncleaved DNA left (log2)” value in [7] is 0.0403; in assay [8] it was -0.0735; in [9], -0.0203; in assay [10], -0.0425.

On to GGGACGA, for which the “uncleaved DNA left (log2)” value worked out at 0.0665 in assay [1]; 0.215 in assay [2]; 0.938 in assay [3]; 2.16 in assay [4]; 0.0172 in assay [5]; 2.34 in [6]. Further, the “uncleaved DNA left (log2)” value in assay [7] is 0.266; in assay [8] it was 0.134; in assay [9], -0.104; in assay [10], 0.28.

As to TTTTCTC, the “uncleaved DNA left (log2)” value in [1] was -0.476; in [2], -0.141; in [3], 0.05; in assay [4], -0.39; in assay [5], -0.0566; in [6], -0.487. In addition, the “uncleaved DNA left (log2)” value in assay [7] is -0.217; in assay [8], -0.127; in assay [9] it was -0.00145; in assay [10], -0.0861.

For the sequence TGCCGAC, the “uncleaved DNA left (log2)” value in assay [1] was -0.114; in [2], -0.185; in [3], -0.0875; in assay [4], 0.0508; in assay [5], -0.166; in assay [6], -0.227. For the same sequence, the “uncleaved DNA left (log2)” value in [7] was -0.00336; in assay [8], -0.0863; in assay [9], -0.124; in assay [10] it was -0.053.

On to CAGCACC, for which the “uncleaved DNA left (log2)” value was -0.0165 in [1]; -0.0443 in assay [2]; 0.0137 in assay [3]; -0.482 in assay [4]; -0.0193 in [5]; -0.548 in assay [6]. In addition, the “uncleaved DNA left (log2)” value was -0.106 in assay [7], -0.1 in assay [8], -0.087 in [9] and 0.0154 in assay [10].
